Assay results from PubChem BioAssay AID720542 (National Center for Advancing Translational Sciences (NCATS), 2013).
About 740 (0.21%) of roughly 360,000 compounds were called active. This list was built around the results that the source calls inconclusive (neither active nor inactive); the mix of calls is not that of the screen. The call rests on the fitted dose curve; in most records, active means well fitted inhibition curve with a large enough effect; inconclusive means small, poorly fitted or top-dose-only effect; inactive means no such curve, though single readings can be large or run the other way. Potencies of inconclusive entries are left out as doubtful fits.

Test system: Plasmodium falciparum AMA1 (3D7) - RON2 peptide interaction
Test: qHTS for Inhibitors of AMA1-RON; Towards Development of Antimalarial Drug Lead: Primary Screen; further: nearly all actives have a fitted effect of over 45% in size;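 on activity change, negative = inhibition: 0% = vehicle wells and -100% = peptide control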
Settings: AlphaScreen AMA1-biotinylated RON2 peptide binding; activity change, negative = inhibition: at 58.2 µM (top of the series) unless noted
Method in brief: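 AMA1 (3D7) with his tag at 25 nM final met compounds first, then biotinylated RON2 peptide at 25 nM; detection used donor plus acceptor beads, 10 µg/mL apiece, read by AlphaScreen after 30 min at room temperature.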
Potency means the concentration at half of the fitted maximal effect; tags describe the fitted curve by direction and shape.

| SMILES | Potency | activity change, negative = inhibition |
| --- | --- | --- |
| O=C(OCC(=O)N1CCN(C(=O)c2ccco2)CC1)c1ccccc1 | inconclusive [inhibitor, full curve, poor fit] | – |
| COc1ccc(N=Nc2ccc3ccccc3c2)c(O)c1 | inconclusive [inhibitor, partial curve] | – |
| Cc1cc2ncc(-c3cccc(Cl)c3)cn2n1 | – | inactive: 0.443% |
| O=C(NC1CCCCCC1)C1c2ccccc2C(=O)N1CCCN1CCOCC1 (centres undefined) | – | inactive: -4.29% |
| CCCC(c1nnnn1Cc1ccco1)N1CCN(c2cc(Cl)ccc2C)CC1 (centres undefined) | inconclusive [inhibitor, partial curve] | – |
| CNc1nc(-c2c[nH]c3ccccc23)cs1 | inconclusive [inhibitor, single point] | – |
| COCCNC(=S)N/N=C(\C)c1ccccc1OC | – | inactive: 41.5% [at 11.6 µM] |
| O=C(O)c1cccc(Nc2ccc([N+](=O)[O-])c3nonc23)c1 | inconclusive [inhibitor, single point] | – |
| COc1cc(OC)c(CN2CCN(c3ccc(F)cc3)CC2)cc1Br | inconclusive [inhibitor, partial curve] | – |
| COc1ccc(CCNC(=O)c2noc(C)c2[N+](=O)[O-])cc1OC | – | inactive: 5.08% |
| O=C(c1ccc2c(c1)N(Cc1ccccc1)CCS2)N1CCCCC1 | inconclusive [inhibitor, single point] | – |
| O=c1[nH]cnc(CN2CCCCC2)c1O | inconclusive [inhibitor, single point] | – |
| COc1ccc(-c2[nH]c(-c3ccc4c(c3)OCO4)nc2-c2ccccc2)cc1 | inconclusive [inhibitor, partial curve] | – |
| O=[N+]([O-])c1cc([N+](=O)[O-])c(N2CCOCC2)cc1NCc1ccccc1 | inconclusive [inhibitor, partial curve] | – |
| COC(=O)c1ccc(C)c(NC(=O)CSc2sc3c(O)cc(=O)[nH]c3c2C#N)c1 | inconclusive [inhibitor, partial curve] | – |
| CCOCCCNC(=O)C(NC(=O)Cc1cccs1)c1ccccc1 (centres undefined) | inconclusive [inhibitor, full curve, poor fit] | – |
| CSc1nc(SCC(=O)NC(c2ccccc2)c2ccccc2)c2c3c(sc2n1)CN(C)CC3 | inconclusive [inhibitor, single point] | – |
| C/C=C/c1ccc(OCC(O)CN(C)Cc2ccc(SC)cc2)c(OC)c1 (centres undefined) | inconclusive [inhibitor, single point] | – |
| O=C(CSC1=NCCS1)Nc1nc2c(s1)CCCC2 | – | inactive: 60.3% |
| CC(C)CN1C(=O)CC(Sc2ccccc2C(=O)O)C1=O (centres undefined) | – | inactive: -6.37% |
| COc1cccc(C(C)(O)c2nc(-c3ccc(N(C)C)cc3)cs2)c1 (centres undefined) | inconclusive [inhibitor, single point] | – |
| C/C(=C\c1ccccc1)CN1CCN(C(C)C)C(CCO)C1 (centres undefined) | – | inactive: 0.552% |

| SMILES | Potency | activity change, negative = inhibition |
| --- | --- | --- |
| COc1cc(OC)c2c(c1C(CCN1CCOCC1)c1ccc(N(C)C)cc1)OC(=O)CC2c1ccc(N(C)C)cc1 (centres undefined) | active: 14.1 µM | – |
| C#CCNC(=O)c1cc2sccc2n1C | inconclusive [inhibitor, partial curve] | – |
| Cc1ccccc1Cn1c(C(=O)OC(C)C)cc2c1ccn2C | inconclusive [inhibitor, partial curve] | – |
| COc1ccc(CC(=O)N/N=C/c2cc([N+](=O)[O-])cc(Br)c2O)cc1 | – | inconclusive: -13.7% [inhibitor] |
| CCC(CC)C(C(=O)NCc1ccccc1)N1CCN(C(=O)C2CCCO2)CC1 (centres undefined) | – | inactive: -1.51% |
| CC1CN(c2ncnc3c2c(-c2ccccc2)cn3-c2ccc(F)cc2)CC(C)O1 (centres undefined) | inconclusive [inhibitor, single point] | – |
| CC(C)CCn1nc(C(=O)Nc2nc3c(s2)CCCC3)c2ccccc2c1=O | – | inactive: 20.8% |
| CC1CCN(C(=O)COC(=O)C2CCN(S(=O)(=O)c3c(Cl)cccc3Cl)CC2)CC1 | inconclusive [inhibitor, single point] | – |
| CSc1ncc(C(=O)Nc2ccc(Cl)cc2)c(C)n1 | – | inactive: -2.88% |
| CC(C)(C)C1CCN2CCCC(c3ccc([N+](=O)[O-])cc3)(C1)C21OCCO1 (centres undefined) | inconclusive [inhibitor, partial curve] | – |
| O=C(c1ccco1)N(CCC(c1ccccc1)c1ccco1)Cc1ccco1 (centres undefined) | – | inactive: -24% |
| NC(N)=NCc1cccc(I)c1 | – | inactive: 1.68% |
| O=S(=O)(c1cccc(C(F)(F)F)c1)N1CCN(CC(O)COCc2ccccc2)CC1 (centres undefined) | inconclusive [inhibitor, single point] | – |
| COc1ccc2cc([C@H](C)C(=O)N(C)Cc3ccccc3N3CCCC3)ccc2c1 | inconclusive [inhibitor, partial curve] | – |
| CC(C)c1ccc(NC(=O)C(c2ccc3c(c2)OCO3)N2CCN(C(=O)c3ccco3)CC2)cc1 (centres undefined) | inconclusive [inhibitor, full curve, poor fit] | – |
| COc1ccc(N2CCN(C(=O)c3cccc(S(=O)(=O)N4CCCc5ccccc54)c3)CC2)cc1 | inconclusive [inhibitor, single point] | – |
| CSC1=N/C(=C\C=C\c2cccs2)C(=O)S1 | inconclusive [inhibitor, partial curve] | – |
| COC(=O)c1cc(=O)n(Cc2cccs2)c(=Nc2ccc(F)cc2)s1 | inconclusive [inhibitor, partial curve] | – |
| O=[N+]([O-])c1cccnc1Sc1ccccc1Cl | inconclusive [inhibitor, single point] | – |
| O=C1C(Cl)=C(N2CCN(c3ccccc3[N+](=O)[O-])CC2)C(=O)c2ccccc21 | inconclusive [inhibitor, partial curve] | – |
| Cc1nc(-c2ccc(S(=O)(=O)N3CCCN(CCc4ccccc4)CC3)s2)cs1 | inconclusive [inhibitor, partial curve] | – |
| CCCC(CCC)C(=O)Nc1ccncc1 | inconclusive [inhibitor, full curve] | – |
